# PubChem BioAssay (NCI)
# “And” between values parts separate entries of the source, which are not always exact repeats. Identical values can stand only once.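 96-well plates; 48 h exposure; 5 concentrations. Endpoints by linear interpolation between flanking doses. Not reached: highest tested concentration assigned. The concentration for 50% growth inhibition is given as GI50. TGI: concentration producing complete growth inhibition.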 Numbered stars: 1 amine (or outer) side, 2 acyl side, 3 side chain; on linkers, the order of the positions; unused ones are H or OH. Bridge positions count the residues as written; N and C are the ends. Square brackets hold non-standard residues; d marks the D form. Peptide text beside a SMILES is read from it. I, II: the chains in the order shown. Actinocin(9to1) = Cc1c2oc3c(C)ccc(C(=O)[*:1])c3nc-2c(C(=O)[*:2])c(N)c1=O; X44 = O=C1CC(C(=O)[*:2])N([*:1])C1; NMeV = CN[CH](C(=O)O)C(C)C; Sar = CNCC(=O)O
# Tested on: NCI-H322M lung
# Experiment: NCI tumour cell line growth inhibition, 48 h
Compound,TGI,GI50
O=[N+]([O-])c1ccc2c(c1)c(N=NC(=S)NC1CCCCC1)c(O)n2CN1CCOCC1,22 µM,–
C=C1C(=O)O[C@@H]2C(=O)[C@@H](C)[C@@H]3C=CC(=O)[C@@]3(C)[C@@H](OC(=O)/C(C)=C\C)[C@H]12,26.6 µM,–
Nc1ncnc2c1ncn2C1C=CC(CP(=O)(O)O)C1 (configuration not stated),> 100 µM,–
NC(CNO)C(=O)O (configuration not stated),> 100 µM,–
COc1cc(/C=C2\CN(C)C/C(=C\c3cc(OC)c(OC)c(OC)c3)C2=O)cc(OC)c1OC,2.04 µM,0.76 µM
OCC1OC(Oc2cc(O)cc(/C=C\c3ccc(O)cc3)c2)C(O)C(O)C1O (configuration not stated),> 100 µM,–
O=[n+]1c2c(n([O-])c3ccccc31)-c1cccc3cccc-2c13,> 100 µM,–
CNNCc1ccc(C(=O)NC(C)C)cc1,> 500 µM,–
O=C(O)C(CSC(c1ccccc1)(c1ccccc1)c1ccccc1)N=Cc1cccs1 (configuration not stated),> 100 µM,–
O=S(=O)(/N=C(\NO)Nc1ccc(Cl)cc1)c1ccc(S(=O)(=O)c2ccccc2)s1,52.8 µM,–
COc1ccc(-c2nn(-c3cccc(NC(=O)Nc4ccc(Cl)c(C(F)(F)F)c4)c3)cc2-c2ccncc2)cc1Cl,> 100 µM,3.86 µM
Cc1cc2c(cc1Cl)SC(N/N=C(\N)c1ccc(Cl)cc1)=NS2(=O)=O,> 100 µM,–
Cc1ccc(S(=O)(=O)OC2=C/C(=N\c3onc(C)c3C)c3ccccc3C2=O)cc1,> 100 µM,–
COc1cc2ccc3c4c(OC)cc(OC)c(OC)c4c(=O)n(C)c3c2cc1OC,16.7 µM and > 42.2 µM,1.34 µM
COc1ccccc1C(C1=C(O)COC1=O)c1cc2c(cc1OC(C)=O)OCO2 (configuration not stated),> 100 µM,–
N#CC1=C(S)N(C2OC(CO)C(O)C(O)C2O)C(c2ccccc2)=CC1c1ccccc1 (configuration not stated),> 100 µM,–
COc1ccc(-c2cc(=O)c3c(OC)c(OC)c(OC)c(OC)c3o2)cc1OC,> 100 µM,–
COc1ccc2c(c1)CCc1c(-c3noc4c3CCc3cc(OC)ccc3-4)noc1-2,> 100 µM,–
CCCCCCCC/C=C\CCCCCCC(F)C(=O)O (configuration not stated),> 12.5 µM,–
Cc1cccc2c(N=Nc3ccc(S(N)(=O)=O)cc3)c(O)[nH]c12,> 25 µM,> 25 µM
C=C1C[C@@H](O)[C@@H](Br)C(C)(C)[C@]12CCC(C)(Cl)C(Br)C2 (some centres not stated),> 100 µM,–
O=C(Cn1cc(-c2ccccc2)nn1)NC1CCCC1,> 100 µM,–
C=C1C(=O)O[C@H]2[C@H]1CC/C(Cn1cc(Cn3ccc4ccccc43)nn1)=C\CC[C@@]1(C)O[C@@H]21,26.1 µM,13.3 µM
COC1=NC(NC2OCC(O)C(O)C2O)=C(NC(C)=O)CN1C (configuration not stated),> 100 µM,–

Compound,TGI,GI50
CCCc1cc2cc(-n3nc(C)c4c3CC(C)(C)CC4=O)cc(NC3CCC(O)CC3)c2c(=O)[nH]1 (configuration not stated),> 100 µM,1.19 µM
CN(C)CCn1c(=O)c2ccc3c4c(nn3CCN(C)C)c3cc(N)ccc3n(c1=O)c24,< 0.042 µM,–
CN=C1Nc2ccc(Cl)cc2C(c2ccccc2)=NN1C,> 100 µM,–
N=C1N(c2ccccc2)C(=O)C23CCCC2C13N1CCOCC1 (configuration not stated),> 100 µM,–
Cc1n[nH]c(=S)n1/N=C/c1ccc(F)c(Oc2ccccc2)c1,> 100 µM,54.7 µM
CCOC(=O)CC(=O)C(=O)NNC1=NCCCN1,> 100 µM,–
COc1ccc(CNc2nc3cc(C(F)(F)F)ccc3nc2C(=O)O)cc1OC,> 100 µM,–
O=C(Nc1ccccc1)Nc1cccc(-n2cc(-c3ccncc3)c(-c3ccc(O)c(Cl)c3)n2)c1,46.2 µM,4.7 µM
COC(=O)C1=NN2c3ccccc3C(=O)OCCC2(C)C1 (configuration not stated),> 100 µM,–
O=[N+]([O-])c1cc(CCl)ccc1CCl,3.06 µM,–
N/C(=N\N=C\c1cccs1)NO,> 100 µM,–
c1ccc(C2C3=C(CCCC3)Nc3nc4cc5ccccc5cc4n32)cc1 (configuration not stated),> 100 µM,–
CCOC(=O)n1[nH]c(=O)n(-c2ccccc2)c1=O,> 100 µM,–
CC(=O)N(C)c1ccc2c(ccc[n+]2[O-])c1[N+](=O)[O-],> 100 µM,–
CC(NC(=O)C(N)Cc1ccc(O)cn1)C(=O)O (configuration not stated),> 100 µM,–
CC(C)CC(NC(=O)C(CC(C)C)NC(=O)C(Cc1cnc[nH]1)NC(=O)C(C)NC(=O)C(NC(=O)C(C)NC(=O)C(Cc1c[nH]c2ccccc12)NC(=O)C(CCC(=O)O)NC(=O)C(N)Cc1ccccc1)C(C)C)C(N)=O (configuration not stated) (H-FEWAVAHLL-NH2; configuration not given here),> 100 µM,64.8 µM
COC(=O)C1(C(=O)OC)CC2c3c(c4ccccc4n3C)CC(C1=O)N2Cc1ccccc1 (configuration not stated),> 100 µM,–
COC(=O)[C@@H]1C[C@H]([Se]c2ccccc2)CN1S(=O)(=O)c1ccc(C)cc1,> 100 µM,–
Nc1ncnc2c1nc(-c1ccccc1)n2C1OC(CO)C(O)C1O (configuration not stated),> 100 µM,–
Cc1ccc2c(c1)C(=O)C(Cc1ccccc1C(=O)O)C2 (configuration not stated),> 100 µM,–
"Cc1c2oc3c(C)ccc(C(=O)NC4C(=O)NC(C(C)C)C(=O)N5CC(=O)CC5C(=O)N(C)CC(=O)N(C)C(C(C)C)C(=O)OC4C)c3nc-2c(C(=O)NC2C(=O)NC(C(C)C)C(=O)N3CC(=O)CC3C(=O)N(C)CC(=O)N(C)C(C(C)C)C(=O)OC2C)c(N)c1=O (configuration not stated) (I: TV[X44][Sar][NMeV] / II: TV[X44][Sar][NMeV]; ester I:1-I:C, II:1-II:C; linker I:N-II:N via Actinocin(9to1); configuration not given here)",> 1 µM,–
C/C(CC(=O)NNc1ccc([N+](=O)[O-])cc1)=N\Nc1ccc([N+](=O)[O-])cc1,> 100 µM,23.3 µM
Nc1nc(N)c2c(n1)NC(c1ccccc1)CC(/C=C/c1ccc(Cl)cc1)=N2 (configuration not stated),28.2 µM,–
